# Data published in the supplement of paper PMC3334620.
# The full ranking holds about 33,000 sequences; the median of “E-score (-0.5 to 0.5)” is about -0.056, and the highest 2% start at about 0.38. The list shows a part of the results.
# Target: Stb4 (UniProt P50104)
# Assay: PBM E-score (8-mer binding enrichment) (E-score (-0.5 to 0.5)); higher = stronger / more preferred TF binding; most listed sequences are background and not binding sites
# Settings: protein concentration: 200 nM; construct: GST-DNA-binding domain
# Experimental: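 Universal 'all 10-mer' protein binding microarrays (Agilent AMADID 015681) probed with GST-tagged S. cerevisiae TFs (full-length or DBD) made by in vitro transcription/translation (PURExpress), about 100-200 nM. Bound TF was detected with fluorescent anti-GST. Each ungapped 8-mer (which stands for itself and its reverse complement) is scored by the PBM enrichment score (E-score), a modified Wilcoxon-Mann-Whitney statistic from -0.5 to +0.5, computed with the Universal PBM Analysis Suite. Scale: above 0.35 generally sequence-specific binding.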
row,Sequence,PBM E-score
1,GGCATGCA,-0.236
2,AACCCTAC,-0.203
3,ATTATACG,0.138
4,ATGGACCC,-0.0539
5,GGCTCGTA,-0.0188
6,CCCACCCC,0.332
7,AGCCTCTA,-0.184
8,CAGAGTGC,-0.108
9,AGATATTC,-0.124
10,AATAAACG,-0.029
11,ACATCTTG,-0.193
12,AGGAGCAC,-0.073
13,CATGTGTA,0.015
14,AGGCCAAG,-0.0945
15,AACAGGGA,0.0167
16,CGAATGCA,-0.203
17,AGTCCAGA,-0.048
18,AGGAGCTA,-0.112
19,CGGAGATA,0.373
20,ATCCCGTA,0.182
21,AAGGGATC,-0.0355
22,CAGCACCG,0.137
23,ACAAATAC,0.0453
24,ATCGGGAC,0.284
25,CGTCTCCA,-0.0515

row,Sequence,PBM E-score
1,TCCTCTAA,-0.171
2,TAGGGTGA,-0.0626
3,CCAGACAA,-0.0506
4,TAACCCGA,0.385
5,TACTACGA,-0.209
6,CTACCCTA,-0.244
7,CCGAGTAA,0.345
8,CTGAAGAC,0.0427
9,GACTGCAC,-0.182
10,ACGACTTA,0.00412
11,GGTCACAC,-0.14
12,ACGAAATC,-0.0845
13,CAATCGCC,-0.00387
14,AGCGATCG,-0.13
15,AATTCAAT,-0.00516
16,ATCAGCAC,-0.139
17,GAACATGC,-0.129
18,AGTCGAAC,-0.0182
19,CGCAAATA,-0.0524
20,CCCTCACC,-0.107
21,GATTTCAC,-0.0278
22,GGGCGTCA,-0.00101
23,GCCGCCAA,-0.0226
24,CCGCGTCG,0.247
25,AAGAGGGG,-0.0851

row,Sequence,PBM E-score
1,GCTTTAAA,-0.133
2,GATAATAC,0.0339
3,AATGTAAG,0.00441
4,ATACATAT,0.0739
5,ACGCAGGA,-0.261
6,ACCCAATA,-0.151
7,CAACACAA,-0.13
8,ATAACATG,-0.0103
9,AGCGCTGC,-0.219
10,AATGGGCT,-0.234
11,TGGGGTAA,0.0799
12,GCGCGGCC,0.112
13,ACGCCCTG,-0.00993
14,CATGCGCA,-0.144
15,CCGACGCA,0.238
16,AACCGGAA,0.377
17,AAGCAACG,-0.0601
18,ATGACTGA,-0.107
19,GAACCGCA,0.0725
20,AACCTAGA,-0.0131
21,AATGCTAC,0.137
22,CTAGTGGA,-0.228
23,GTCTCTTA,0.155
24,CGCATTCA,0.0585
25,GCGCCCAC,-0.106

row,Sequence,PBM E-score
1,AGAGGGCA,-0.289
2,ACGAAACT,-0.0155
3,CGCAGCGC,-0.036
4,ATTCGTCC,0.0896
5,ATATACGA,-0.202
6,ACATGTCT,-0.0405
7,ATAGCGAC,-0.166
8,AAAGTGAG,-0.136
9,CCGGTTAC,0.26
10,ATCAACCA,-0.201
11,CCGAGCCG,0.468
12,ATGATCAA,-0.209
13,GGTCCTAC,-0.163
14,TATTGAAA,-0.0261
15,GCTGATCA,-0.13
16,ATTGCCCG,0.183
17,ATTCTTGA,0.0217
18,CATGGCAG,-0.047
19,AGCGCTGA,0.0271
20,CCGTTCTA,0.124
21,CCGCAACA,0.075
22,CGCATCAG,0.137
23,ACGGGTCG,0.239
24,ATATCACC,-0.00862
25,TGAAGGAA,-0.173

row,Sequence,PBM E-score
1,CGCGCCAA,0.0906
2,ATTTAATG,0.156
3,AGAGCCGC,0.124
4,ACGAAGCT,-0.0648
5,ATGTAGCC,0.136
6,ACATTGGA,-0.177
7,AATGTTGA,0.0031
8,TGATAGAA,-0.223
9,GATTCTTA,-0.0637
10,AAAGGCTT,-0.2
11,AAGTGCTG,-0.266
12,CGCTATCC,0.25
13,AGGTCTAC,0.0618
14,GTATATTA,-0.252
15,ACTCATTC,0.17
16,TCTCCAAA,-0.144
17,GATTCGTA,0.0772
18,AACAACCC,0.0333
19,CTGTCCTA,-0.293
20,ATTCGTGC,-0.108
21,CATCGAAG,-0.192
22,AATTCTGG,-0.175
23,CGATTGCA,0.114
24,ACTCTAAG,-0.00837
25,CCCCTTAG,-0.149

row,Sequence,PBM E-score
1,ACTAGTCG,-0.0584
2,AAGTTGGC,-0.0893
3,ATCAGGGA,-0.232
4,GCTGTTCC,0.121
5,ATGCTATG,-0.158
6,CCGGAGAA,0.261
7,ATCTAGTA,-0.128
8,GTCCGTAA,-0.00944
9,GCCATCCA,-0.118
10,CGTGTGAC,0.0159
11,GCACTCGA,-0.053
12,ACTTATTA,-0.116
13,CATAAGCG,-0.119
14,ACCAGTTC,-0.022
15,CCTTGGCG,-0.0179
16,CGAATAGA,0.0103
17,GAGCTTAA,-0.0608
18,CCGGTACG,0.146
19,CTTCCACC,-0.0439
20,AGGAGTAA,-0.0603
21,CTCGACTC,-0.13
22,ACCTACAA,-0.15
23,ATGGTAAG,-0.145
24,GAAATTCC,0.149
25,TATCAGGA,-0.235

row,Sequence,PBM E-score
1,ACAGGTAC,-0.089
2,CAAACATC,0.142
3,AACGCGCC,0.111
4,AAATAGTT,0.0385
5,CCCATTGC,-0.194
6,GCGGACGC,-0.0766
7,CATTCTGA,-0.0339
8,GGATGGAC,0.0976
9,ACAGTTCA,-0.261
10,CGCCTCCA,-0.146
11,ATCACTGC,0.075
12,GTCTGTAA,0.0297
13,TCACTGGA,-0.161
14,GAACGATC,-0.0262
15,CCTCCCGA,0.387
16,CTACCCGC,0.273
17,CACCCTAA,-0.201
18,GCGCTCAA,-0.235
19,GCTCTGAC,-0.322
20,ACCACATG,-0.182
21,CCGGAACA,0.431
22,GGCCCAAC,-0.00686
